We go through 25 compounds from PubChem BioAssay AID463173 (ICCB-Longwood Screening Facility, Harvard Medical School, 2010).

In all, about 52,000 compounds went through this assay and about 1,700 (3.3%) were called active. Cut-off read from the data, not from the text of the source: active = survival mostly below about 52% (no sharp cut-off); inactive = mostly above about 56%. The list shows a part of the results.

In this experiment the test system is Wild type. In words: growth inhibition of S. aureus wild type versus tarO mutant, primary screen, teichoic acid synthesis inhibitors, RN4220, OD600 (AID 463173). The settings on record: S. aureus RN4220 wild type/DeltatarO growth, OD600, 18 h, hits give low values, screened at 18.75 µg/mL (by protocol).
Turning to `COc1ccc(-c2cc3nc(C)c(CCC(=O)Nc4cccc(C(F)(F)F)c4)c(C)n3n2)c(OC)c1`, the survival was inactive: 75%.
The figure for `COC(=O)C(Cc1c[nH]c2ccccc12)NC(C)=O` (stereo not given) is inactive: 107%; for `CCn1cc2nc(SCC(=O)Nc3ccccc3F)n(Cc3ccc(C)cc3)c(=O)c2n1` it is inactive: 95%.
The figure for `CCc1ccc(-c2nc(CN3CCCC(C(=O)NCc4ccc(C)cc4)C3)c(C)o2)cc1` (stereo not given) is inactive: 88%.
The figure for `Cc1ccnc(NC(=O)c2c(C)oc3ncn(CC(C)C)c(=O)c23)c1` is inactive: 69%; for `Cc1ccc(CNC(=O)Nc2cn(CC(C)C)c(=O)c3ccccc23)cc1` it is inactive: 72%.
With `Cc1cc(C)c(NC(=O)CN2c3ccccc3S(=O)(=O)c3ccccc32)c(C)c1`, the survival was inactive: 124%.
For the compound `O=C(NCCCN1CCN(c2ccccc2F)CC1)c1cc2c(Cl)nc3ccccc3c2s1`, the survival was inactive: 82%.
Consider `CN(C(=O)Cn1cc(S(=O)(=O)N2CCN(c3ccccc3F)CC2)c2ccccc2c1=O)c1ccc(Cl)cc1`, for which the survival is inactive: 71%.
The result for `COCC(C)NC(=O)c1cnn2c(C(F)F)cc(-c3ccccc3)nc12` (stereo not given) reads inactive: 74%; that for `CC(=O)c1ccc(NC(=O)c2cc(-c3ccc4c(c3)OCO4)on2)cc1`, inactive: 75%.
The result for `CCCCCOc1ccc(NC(=O)Cc2csc(C)n2)cc1` reads inactive: 89%.
The figure for `Cc1ccc(C(=O)Nc2ccccc2C(=O)O)cc1S(=O)(=O)N1CCCCCC1` is inactive: 105%; for `Cc1nnc(SCc2ccccc2Cl)c2cc3sccc3n12` it is inactive: 86%; for `O=C(Nc1sc2c(c1C(=O)Nc1ccc(Cl)cc1)CCCC2)c1cccs1` it is inactive: 130%.
Consider `CN1CCN(CCCNC(=O)Cn2c(-c3cccs3)cc3cc(Cl)ccc32)CC1`, for which the survival was inactive: 78%.
The figure for `Cc1ccc(CN2COc3cc(C)c4c(oc(=O)c5ccccc54)c3C2)cc1` is inactive: 85%; for `COc1cc(OC)c(NC(=O)C(NS(=O)(=O)c2cccc3nsnc23)c2ccccc2)cc1Cl` (stereo not given) it is inactive: 45%.
As for `CCOc1ccc(NC(=O)c2cnn(-c3ccc(C)c(Cl)c3)c2C2CCNCC2)cc1`, the survival is inactive: 82%.
The figure for `Cc1ccc2[nH]c(C(=O)Nc3ccccc3)cc2c1` is inactive: 91%.
With `COc1ccc(-c2[nH]c(-c3ccccc3)nc2SCC(=O)Nc2ccc3c(c2)OCCO3)cc1`, the survival was inactive: 69%.
The result for `CCOc1cc(C2NC(=O)c3c(sc4c3CCN(C)C4)N2)ccc1OC(=O)c1ccccc1Cl` (stereo not given) reads inactive: 125%.
The figure for `Cc1ccc(S(=O)(=O)CCC(=O)Nc2ccc(Br)cc2C)cc1` is inactive: 94%; for `CCOC(=O)c1cnc2c(ccc3ccccc32)c1Nc1ccccc1OC` it is inactive: 69%.
The result for `CCOC(=O)c1cnc2ccccc2c1NCC(C)O` (stereo not given) reads inactive: 93%.
